Measurements published in PMC4336329 (PLoS ONE, 2015).
The whole screen tested about 310,000 compounds, of which about 2,200 (0.71%) showed an effect of 50% or more. Effects have a minus sign here. This is one part of the list.

Target: human ether-à-go-go-related gene (hERG) potassium channel (human, UniProt Q12809)
Assay: primary screen, population patch clamp on CHO cells stably expressing hERG

Sequence of human ether-à-go-go-related gene (hERG) potassium channel (Q12809 whole entry, looked up): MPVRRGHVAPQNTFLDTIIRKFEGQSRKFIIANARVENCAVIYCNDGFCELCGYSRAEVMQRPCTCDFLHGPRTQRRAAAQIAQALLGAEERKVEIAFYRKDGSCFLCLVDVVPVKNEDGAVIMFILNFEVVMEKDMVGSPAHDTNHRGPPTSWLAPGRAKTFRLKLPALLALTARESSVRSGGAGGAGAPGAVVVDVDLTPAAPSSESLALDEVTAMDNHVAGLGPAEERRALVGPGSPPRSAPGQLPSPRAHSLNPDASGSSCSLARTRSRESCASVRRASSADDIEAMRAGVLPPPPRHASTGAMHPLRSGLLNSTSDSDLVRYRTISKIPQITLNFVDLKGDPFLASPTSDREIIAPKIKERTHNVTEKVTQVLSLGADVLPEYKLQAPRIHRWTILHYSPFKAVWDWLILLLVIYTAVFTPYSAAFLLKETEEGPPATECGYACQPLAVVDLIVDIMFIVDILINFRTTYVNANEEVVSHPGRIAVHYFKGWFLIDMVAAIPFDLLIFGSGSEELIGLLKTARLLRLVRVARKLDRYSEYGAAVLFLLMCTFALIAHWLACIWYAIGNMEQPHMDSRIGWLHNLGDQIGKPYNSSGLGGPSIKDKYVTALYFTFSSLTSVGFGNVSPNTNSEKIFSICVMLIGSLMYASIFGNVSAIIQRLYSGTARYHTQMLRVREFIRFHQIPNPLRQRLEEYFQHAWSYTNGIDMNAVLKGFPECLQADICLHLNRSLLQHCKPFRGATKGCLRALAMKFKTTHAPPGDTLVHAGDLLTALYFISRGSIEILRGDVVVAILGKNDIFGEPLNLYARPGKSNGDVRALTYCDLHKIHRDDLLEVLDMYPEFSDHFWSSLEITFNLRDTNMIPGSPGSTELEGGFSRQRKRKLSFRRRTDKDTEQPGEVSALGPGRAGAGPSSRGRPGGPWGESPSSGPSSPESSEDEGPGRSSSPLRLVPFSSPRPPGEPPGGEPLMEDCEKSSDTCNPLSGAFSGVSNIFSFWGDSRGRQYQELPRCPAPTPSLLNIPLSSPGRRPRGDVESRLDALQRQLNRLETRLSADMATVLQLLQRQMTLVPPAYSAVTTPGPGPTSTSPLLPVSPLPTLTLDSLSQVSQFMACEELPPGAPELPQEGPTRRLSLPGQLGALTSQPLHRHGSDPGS

Row | SMILES | hERG current change (%, negative = inhibition) at 1uM [%]
1 | COc1ccc(/C=C2/CCCC(C(=O)C(F)(F)F)=C2O)cc1OC | 5.85
2 | Cc1cc(C)n2nc(SCc3cccc(S(=O)(=O)N(C)C)c3)nc2n1 | 11.5
3 | Cc1ccccc1NC(=O)c1ccc2c(c1)C(=O)N(CCC(C)C)C2=O | -2.02
4 | CCN(c1ccccc1)c1nc2ccsc2c(=O)s1 | 13.2
5 | CN(C)c1ccc(C2N3CC4(C)CN2CC(C)(C3)C4O)cc1 (stereo not shown) | 12.7
6 | C=CCOc1c(Cl)cc(CNCCCN2CCOCC2)cc1OC.Cl | -0.304
7 | COC(=O)Nc1cc(C(F)(F)F)ccc1N1CCN(c2ccccc2)CC1 | 10.7
8 | O=C1CC(/C=C/c2ccccc2)(C(=O)NC2CCCC2)N1c1ccc(S(=O)(=O)N2CCCC2)cc1 (stereo not shown) | 0.462
9 | COc1cc(OC)cc(C(=O)Nc2cccc3nc(C)ccc23)c1 | 12.6
10 | COc1ccc(/C=C/C(=O)N2CCN(c3ccccn3)CC2)cc1 | 2.77
11 | Cc1cc(C(=O)O)ccc1NCc1cccnc1 | 14.7
12 | O=C(Nc1ccc(N2CCOCC2)cc1N1CCOCC1)c1ccc([N+](=O)[O-])cc1Cl | 3.39
13 | O=c1cc(CN2CCN(S(=O)(=O)c3ccc4c(c3)OCCO4)CC2)c2ccc(O)cc2o1 | 6.77
14 | Cl.N=c1ccn(Cc2ccc(Cl)c(Cl)c2)cc1 | 8.61
15 | O=c1c(Br)c(NCc2ccccc2)cnn1-c1ccc(F)cc1 | 8.92
16 | COc1ccc(N2C(=O)/C(=C\c3ccco3)N=C2SCC(=O)NC(C)(C)C)cc1Cl | 5.77
17 | CN(CC1CCCO1)S(=O)(=O)c1ccc(C(=O)Nc2ccc(S(N)(=O)=O)cc2)cc1 (stereo not shown) | 8.34
18 | COc1ccc(NC(=S)N2CCCCC2c2cccnc2)cc1 (stereo not shown) | 12.2
19 | Cc1nc(NS(=O)(=O)c2ccccc2)sc1NC(=O)OCCN(C)C | 10.3
20 | Cc1cccc(NCc2ccc([N+](=O)[O-])s2)c1 | 8.63
21 | Cc1nc(Nc2ccc(C(=O)O)cc2)nc(Nc2ccc(C(=O)O)cc2)c1[N+](=O)[O-] | 14.6
22 | CCCCn1c(O)c(C=NCCCn2ccnc2)c(=O)[nH]c1=O | 13.2
23 | O=C(c1ccc([N+](=O)[O-])cc1)N1CCN(c2ncccn2)CC1 | -40.7
24 | Cc1nn(C)c(C)c1C(=O)NN | 13
25 | Cc1c(C(=O)Nc2ccc(Oc3ccccc3)cc2)sc2nc3n(c(=O)c12)CCC3 | -3.64
